The results in this text go back to patent US10023579B2, “Pyrrolopyrimidine compounds, use as inhibitors of the kinase LRRK2, and methods for preparation thereof” (Southern Research Institute, priority 2015, dated 2018).

One may read the IC50 as the concentration needed to halve the response being measured.

The target in the assay is T1, WT-LRRK2 (recombinant GST-LRRK2 delta970) (Homo sapiens, UniProt Q5S007).
T1 construct: Recombinant GST-LRRK2 (delta970); GST (N); host or cells: baculovirus-infected Sf9 insect cells
Put plainly: LRRK2 kinase assay, wild type (32P radiometric, peptide substrate). The class given is biochemical. The conditions noted are these: WT-LRRK2 30 nM, ATP ~92 μM (Km), 30 min at 30° C. The protocol:
Compounds were assessed for inhibition of LRRK2 inhibition using the following procedure. Recombinant GST-LRRK2 (delta970) purified from baculovirus infected insect cells (SF9), at least 90% pure and either wild-type sequence or bearing the pathogenic G2019S mutation, was combined into a kinase buffer at 30 nM concentration. Kinase buffer consists of 50 mM Tris HCl pH 7.4, 1 mM EDTA, and 50 μM peptide substrate (amino acid sequence […]). Experimental compounds or control (no compound) were added at desired concentrations in DMSO and water, where final concentration of DMSO in kinase reactions was 0.1% for all drug concentrations. […] Reactions were incubated at 1400 RPM at 30° C. for 30 min. and then spotted in triplicate directly onto a slot-blot apparatus fitted with phospho-cellulose paper and allowed to dry. Each slot was then washed with 10 mM phosphoric acid buffer until beta-radiation could not be detected in eluted wash buffer, usually ˜1 mL per slot. Paper within each slot were excised and radiation measured by liquid scintillation.

The source holds more than one record for some entries. Only these are listed. An entry can have further records. The records of an entry read as repeated measurements on other runs, samples or individuals; a mean can stand among them.

T1 sequence (Q5S007 970-2527 limits assumed): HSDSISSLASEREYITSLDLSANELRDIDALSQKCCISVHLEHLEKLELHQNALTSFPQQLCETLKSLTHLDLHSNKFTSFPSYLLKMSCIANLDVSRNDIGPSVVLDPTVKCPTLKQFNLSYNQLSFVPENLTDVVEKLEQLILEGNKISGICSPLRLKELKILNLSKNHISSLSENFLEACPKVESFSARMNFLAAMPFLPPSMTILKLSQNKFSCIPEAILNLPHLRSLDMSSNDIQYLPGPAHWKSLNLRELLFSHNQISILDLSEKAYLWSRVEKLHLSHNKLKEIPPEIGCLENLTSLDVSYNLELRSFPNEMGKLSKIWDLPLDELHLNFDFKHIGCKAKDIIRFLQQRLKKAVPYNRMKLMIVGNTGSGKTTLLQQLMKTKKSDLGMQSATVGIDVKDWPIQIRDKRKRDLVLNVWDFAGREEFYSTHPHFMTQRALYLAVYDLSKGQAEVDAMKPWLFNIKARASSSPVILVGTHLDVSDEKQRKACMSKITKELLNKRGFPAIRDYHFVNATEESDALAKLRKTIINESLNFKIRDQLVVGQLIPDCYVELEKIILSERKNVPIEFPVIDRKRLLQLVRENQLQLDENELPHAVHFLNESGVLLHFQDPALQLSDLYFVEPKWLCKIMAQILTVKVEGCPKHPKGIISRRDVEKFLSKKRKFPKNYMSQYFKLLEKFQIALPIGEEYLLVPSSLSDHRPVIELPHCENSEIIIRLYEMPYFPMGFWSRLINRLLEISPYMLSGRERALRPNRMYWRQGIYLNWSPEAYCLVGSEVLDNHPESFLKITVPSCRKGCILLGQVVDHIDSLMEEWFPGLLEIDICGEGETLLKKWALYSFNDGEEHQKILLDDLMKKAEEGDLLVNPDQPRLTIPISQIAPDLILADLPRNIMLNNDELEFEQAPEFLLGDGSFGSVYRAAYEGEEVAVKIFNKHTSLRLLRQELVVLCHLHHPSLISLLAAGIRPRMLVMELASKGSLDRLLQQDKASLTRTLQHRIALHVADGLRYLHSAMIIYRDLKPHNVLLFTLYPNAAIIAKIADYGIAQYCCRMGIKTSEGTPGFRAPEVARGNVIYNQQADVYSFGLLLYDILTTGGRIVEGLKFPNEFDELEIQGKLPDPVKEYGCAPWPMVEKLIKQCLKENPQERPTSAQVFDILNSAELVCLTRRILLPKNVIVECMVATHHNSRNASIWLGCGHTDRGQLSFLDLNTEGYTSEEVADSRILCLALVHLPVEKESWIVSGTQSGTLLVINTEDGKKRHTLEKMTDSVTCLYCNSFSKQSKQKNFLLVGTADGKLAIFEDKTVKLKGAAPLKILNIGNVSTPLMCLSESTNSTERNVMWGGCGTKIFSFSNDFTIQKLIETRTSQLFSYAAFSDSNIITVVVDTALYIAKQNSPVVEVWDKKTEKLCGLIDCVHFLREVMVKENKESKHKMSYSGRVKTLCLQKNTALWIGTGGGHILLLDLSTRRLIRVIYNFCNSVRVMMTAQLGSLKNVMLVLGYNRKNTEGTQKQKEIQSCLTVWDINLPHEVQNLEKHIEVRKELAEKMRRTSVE

For the compound `COCCn1cc(Nc2nc(N[C@@H](C)C3CC3)c3cc[nH]c3n2)nn1` [Compound 39, (S)-N4-(1-cyclopropylethyl)-N2-(1-(2-methoxyethyl)-1H-1,2,3-triazol-4-yl)-7H-pyrrolo[2,3-d]pyrimidine-2,4-diamine], the IC50 is 43 nM, 740 nM, 57 nM [one cell].
